B1: chr8:22006364:22006465:+|3pUTR|ENSG00000130227|msi1|total|mutant (ssRNA)
RNA: GGGAGUUCUACAGUCCGACGAUCUGUUGCUGCCCGUUGUACACAUCUCCCGUUCAGCUCUUGCCCACGGGACACUCAUCAAUCCGGUUUUAUUUUUAUUUCUUUCCUCUACCCCCAGAAACAAGCCUGUUAAUUUUUUUUCCUCAACAGAGGAUUGAGCAUCA
B2: chr7:100033925:100034026:+|CDS|ENSG00000106261|msi1|total|mutant (ssRNA)
RNA: GGGAGUUCUACAGUCCGACGAUCCAGAGCUCGGACCUCACCAAGCAUCAGAGAAUUCACACGGGGGAGAAACCCUAUGAAUGCCGUGAAUGUGGAAAAGCUUUCAACCGAAACUCAUACCUGAUUUUGCAUCGGAGAAUUCACCAACAGAGGAUUGAGCAUCA
B3: chr6:108211900:108211976:-|3pUTR|ENSG00000112335|msi1_unk|total|mutant (ssRNA)
RNA: GGGAGUUCUACAGUCCGACGAUCGUUGACAAGAAGUUAAUUUGCUUCCGUAAAAAUCCCUCAUUCCAGCCUUUCUAUAUAAACCGCUCUUUCUUGCUGUUUUAAUGUGGUGCACACUACCGCCUCACAAACCUGUUAUUCCAGCAACAGAGGAUUGAGCAUCA
B4: chr16:67638976:67639077:+|3pUTR|ENSG00000102974|unk|FALSE|unique (ssRNA)
RNA: GGGAGUUCUACAGUCCGACGAUCAAACACUUUUUUCUUCUGUGUAUUGCUUUUAAGAGAGCCAUCAGUUAGCUAUCAGACUCUAGGUUGAUGCAUUUUGUACUUAGCUGUACUGUGUGAUAUUUUUCAUUAUUUUAGGACGCCCAACAGAGGAUUGAGCAUCA
B5: chr1:61455842:61455953:+|3pUTR|ENSG00000162599|unk|total|mutant (ssRNA)
RNA: GGGAGUUCUACAGUCCGACGAUCUUUUCUGUAACAUAUUGGAAAAAGAAAAUGCAGUUAUAUUCCUUUUUUAUUUGUUCCUUCCGUUUGUUUUGGUUCAGCAGUCAGCAGUUAAGUAUAUAACAUGGCCCGCAAGGACAAUGACAACAGAGGAUUGAGCAUCA
B6: chr12:42456824:42456925:-|3pUTR|ENSG00000139174|unk|total|mutant (ssRNA)
RNA: GGGAGUUCUACAGUCCGACGAUCAUGAGCCACUGCGUCUGGCAAUAAUGUAACUUUGAAGCUUAAAAAUUAAUCCCAGUUUGCCGCAAUAACAGAAGACUAUCUACAACGGAAGAAAGAAGCAACUGCCUUACAGUUCUGUAACAACAGAGGAUUGAGCAUCA

The list shows a part of the results.

In this test the target is MSI1 full-length (mouse, UniProt Q61474 1-362). Briefly: nsRBNS (natural sequence RNA bind-n-seq); RBNS binding buffer (assumed for nsRBNS): 25 mM Tris pH 7.5, 150 mM KCl, 3 mM MgCl2, 0.01% Triton X-100, 500 ug/ml BSA, 20 U/ml SUPERase-In, 4 C; UNK is unkempt and MSI1 is Musashi-1; names of the RNAs are library labels; protein concentration not given here; high values mean tight binding.
UniProt Q61474, sequence (Q61474 whole entry): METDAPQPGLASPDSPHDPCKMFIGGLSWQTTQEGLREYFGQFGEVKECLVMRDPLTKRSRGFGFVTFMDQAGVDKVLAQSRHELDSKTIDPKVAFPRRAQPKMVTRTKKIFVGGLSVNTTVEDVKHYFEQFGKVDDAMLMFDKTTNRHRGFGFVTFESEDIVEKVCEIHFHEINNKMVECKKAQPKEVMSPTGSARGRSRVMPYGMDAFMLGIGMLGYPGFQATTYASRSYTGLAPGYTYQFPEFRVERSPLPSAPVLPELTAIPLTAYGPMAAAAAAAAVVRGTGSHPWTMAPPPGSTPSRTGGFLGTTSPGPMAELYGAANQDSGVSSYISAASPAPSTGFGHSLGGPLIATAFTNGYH
On to B1, for which the binding signal was found to be 2.44 enrichment R.

As for B2, the binding signal was 0.384 enrichment R.

For B3, the binding signal worked out at 0.558 enrichment R.

Turning to B4, the binding signal turned out to be 5.17 enrichment R.

On to B5, for which the binding signal is 0.532 enrichment R.

Turning to B6, the binding signal stood at 0.477 enrichment R.

These data come from publication PMC12136788.
